Assay results reported in publication PMC10726135.
The other results are listed elsewhere or left out. At the low end of the ranking, values are background and their order means little. Measured with an extract: partners may take part in the binding.

target: T1, HNF4alpha2 (COS-7 nuclear extract) (UniProt P41235); assay: protein-binding microarray; conditions: COS-7 nuclear extract on double-stranded Agilent 4x180k PBM; binding buffer, salt, pH and temperature not given; high values mean tight binding; double strand, one strand shown; sequences stand for … in …GCCTAGGGAGATTAGAGTATCGGTCGA
T1 sequence: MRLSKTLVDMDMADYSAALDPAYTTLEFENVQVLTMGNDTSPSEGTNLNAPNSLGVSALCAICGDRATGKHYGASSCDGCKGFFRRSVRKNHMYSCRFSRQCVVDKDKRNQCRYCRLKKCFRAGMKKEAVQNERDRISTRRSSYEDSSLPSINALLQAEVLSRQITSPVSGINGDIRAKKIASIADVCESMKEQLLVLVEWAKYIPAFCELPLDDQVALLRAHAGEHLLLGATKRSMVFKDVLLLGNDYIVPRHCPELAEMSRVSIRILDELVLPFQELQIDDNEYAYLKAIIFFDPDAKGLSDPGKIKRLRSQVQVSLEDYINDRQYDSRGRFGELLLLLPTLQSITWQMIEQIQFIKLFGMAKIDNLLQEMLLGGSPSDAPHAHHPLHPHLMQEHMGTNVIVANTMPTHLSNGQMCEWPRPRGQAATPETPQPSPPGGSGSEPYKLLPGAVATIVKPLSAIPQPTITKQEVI

| Sequence | binding signal (log2 normalized intensity) |
| --- | --- |
| CTTTCCTGCAGAGGGACTGACTCCCTTTTC | -0.238 |
| TCTGCTACTTAAGATAGAGGCTTTAGCAAT | -0.878 |
| TGCAGGTGGGAGAGGGGGACTGCAAGTACG | -1.16 |
| CATATAAGGAACAAAGTCAGGTGCCAAAGG | 1.17 |
| AAAGTGACACATTCCAGGCGAGTTTGGGCT | -1.13 |
| TGTGCAGACCTTCTCTGGCCCTCACTTACA | -1.1 |
| AAATTTCAGATATCTGAATGTACCTTTGAA | 2.41 |
| ATATCAGTGGCACTCTCTGGGTTAAACGTG | 1.61 |
| GTCCTTTCAGGACACCTTCAGGGCTGAGCC | 0.581 |
| CTGCCTATCTCCTATGAGCCAAACACCATG | -1.1 |
| CCAGAATCCTAACTGCAAGGAAATCTGGGA | -1.24 |
| GACTTTGGCTTTTCCAAAGGATCCCAGGAA | -0.95 |
| GCTGTCAACGGAGGTGGGAAAGACTTAGGA | -1.13 |
| TTAGATAACATCTTTTCTCAGTTAACTGGA | 0.415 |
| GAATGCTTTGAGCCAGAATCTGTCAGCTGC | -1.1 |
| GGATATTGGCAACGCCTCAGAAGCAAAGTC | -1.24 |
| GGGGAAAGTGCAAGGGCCCAGAGGAAGGAA | -1.17 |
| AGTTGAGAATTCCAGAGATGCCAGGAGAGC | -1.11 |
| TAGTTATTCAGTACAGACTTGTGTAATAAC | 0.916 |
| AAAAAGCTATCATTTGTCACTTGGACTATT | 2.8 |
| TTGGTGAGTCTTAGGGAGGGGCCAGGACAA | -0.527 |
| AGCCTTACCAGTAGGACCACATTCAATCAT | -1.09 |
| CTGTGGACTCTGAGCCTCCTCCCTCTCTCT | 1.7 |
| ATAAGGCTAAGTGGAGGATTTGGGTGATGT | 1.39 |
| CCCATCGACCTTTGCTCCCGACTCTGAGGC | 5.07 |

| Sequence | binding signal (log2 normalized intensity) |
| --- | --- |
| ATACCCATTCACATGACCTTTGTCCGTTCC | 7.01 |
| AATATCCACACAAACCCAGTTTGCATTTTC | -0.782 |
| GTCTCCCTACCTCTGCACAGCTCCAGACAT | -0.855 |
| CTGGGTTTCTTCCCTAATGGACATCTCTAG | 0.206 |
| AAAATCAGTCTCAGTGGGCTAAACATCAAG | -0.841 |
| CTAATCAGGCCTCCCTCCCTCCCCCATTAG | 4.81 |
| ACAGAGCTATTTTAGGGTAAAGATCTTGGG | 0.15 |
| GACACAAAAGGGTACAGCAGCATAAAGGAC | -1.16 |
| AGGCACTGGGATCCAAAGTTCATGGAAAGT | 2.4 |
| TCTGTATGTCTAAGGTTTCTCAGCCCCATC | 4.27 |
| CTTGGCCTCAATGTTTACACTTCCATGTTT | 1.61 |
| CCAAAGGTTAAGGAAACAAGGGTACCAACA | -0.844 |
| GATCAAAGGCCACCGTTGGAATGTTCCAAG | 1.18 |
| CTGATCCTCTCCATGCAGCCAGGGTCAGGA | 1.51 |
| ACGTTTTCCTGCTGACCCTCTCCCCACCAT | 4.72 |
| AGACATCATATTTGTTATATTTGTTATACC | 1.72 |
| GTGAATTTCAGTGCCCTTTGAGATTTGCAT | 2.01 |
| AGTGAGCTAAGATTGGACTCTGCACTCCAG | 5.21 |
| CAGAAAAGGTAAGTGACCCTGGTCTTTGCC | 1.73 |
| GAACTCCCTATCCCCAGATTCCAGGGGAGG | -1.26 |
| TGAGTATCCAAAGGTCAGTGACAAATGTCA | 3.65 |
| TCTTAGCAGAGATTCCTGCTGAGTTATCTC | -1.23 |
| CTGCCAGTTGTCATTTGGGGCGGGCGGTCG | 1.74 |
| CTAAGGCAGGGAAGGAGAGTGACCTCTGCT | 2.87 |
| ACTCTAGGAACTTGTCTAAAAACATTGTGG | 1.37 |

| Sequence | binding signal (log2 normalized intensity) |
| --- | --- |
| ACTCTTTGTTATTTATTGGCCAGTAGCTCT | 1.34 |
| ACCTGTTACAAAACAGGTTCTTCCACGACT | -1.18 |
| GGGTCCTACAGAACCTCCCTCCCCATCTCC | 3.82 |
| TCTGCAAACTTCATGGCTTAAAACGACTGA | -0.771 |
| TTTGGAATTTGACCTCATTTGCTCCCAGTG | 3.85 |
| ACATTGTGTCAATTCCAAAGTTCAAGTAGA | 3.83 |
| ACCTTTGCCCTGGATCTTGAAGCAGAAAAC | 1.58 |
| TTAGAGTCCAGACACAAAGAGACAAAGCTT | -1.14 |
| ATCCCCAGTATAAACAACACAGAACTAGCC | -1.14 |
| CTTTTCTTCCCCCCTCCCTCCGCAACCTTT | 5.66 |
| ATGAGATAAGATGAAGCTCTCAGAATAGCA | -1.16 |
| CAGGGTGACGTCATTGGAAATCCGAAATAA | 0.688 |
| TTAGTCCCTAAGTCTTTCAAAGAAAAGCCT | -1.04 |
| GTCCAGCCACAATTAATGTACCCCCGGAAA | 4.29 |
| AAGAGAGAAAGAAACAGGGGATGTTGATTC | -1.02 |
| GCTGACGCCGCCTCTGCCTCTTGACCCCTT | 5.39 |
| CTTGTGGATCCTTGGAGGACCTTGGGTTCA | 2.49 |
| CATCCTGAGGCAAAATTCCTCGCTAGCTGT | -1.23 |
| AATATCTTCCCATAAAACCTAGACAGAAGC | -1.19 |
| GATGGGGGCAAAGGTTGACACCTAGCTGAG | 4.08 |
| CACAGGAGAGGAGAAAGAGCAATCTCTCAT | -1.17 |
| TGGGAGCTAATGAGCACATTCTTCAATATC | -1.01 |
| TTTCACTTTTTCCCTGCATGTTCACCTCTT | 1.51 |
| TAGCCACTCTACAACAAAGGAAATGAAGCA | -0.885 |
| GGAAAGCTATCCCGGCCAACGGTCGGAAGG | -0.959 |

| Sequence | binding signal (log2 normalized intensity) |
| --- | --- |
| GGCGTCTCTTAGTATTACCATGTCCTGTGA | 1.09 |
| AAAATCACTTGGATAGCGCGTGGCCCAAGG | -1.17 |
| AGCACTCAAATGATCAAAGAAGCCCAGGGC | -1.08 |
| GCTATCAATGACCCATGTTTGCCCTTGATA | 2.46 |
| AGAGGGCCTCTGCTTGTCTTGGTTGTAGAA | 1.03 |
| AAAGATCATCTGGTGGCTTGAGTTGGAGAA | 0.452 |
| TAAAGTCTGTTTGATTCCATGCTGATAATG | 1.42 |
| AGCTCTTTGCACAGTACTGATCTGGGGCCT | -0.475 |
| CATAGTGGGTTTCGGTGTCATCTAGACCTG | 1.1 |
| GGGACAAGGCTGTCCCCCATCTCATCCTGG | -1.15 |
| TCAGATATCTGAATGTACCTTTGAAACCTA | 2.87 |
| GAGAAGGCAGGTAGAAGAAGAGGTCAGCTT | 0.0772 |
| TCCCCCACCTACTGTCTCCTAATCAGCAAC | 1.96 |
| TGGGGTATCAGGTGGTGATGGTGGGAGGGA | 0.113 |
| ATTTGAGCCCAGGAGTTCAAGACTGGTATC | 0.861 |
| GGGTGTAAACCTGGTGGAAGATAAGGGTTA | -0.83 |
| GCCACTGCCTAGATAAAAGGGTCTTAGTAT | 0.712 |
| AATACTTGGAGACAGTGAGACGCAAGCATA | -1.11 |
| GAAAGTACACAGTGCCTGCTTGCAGATAAA | -0.937 |
| ATTCCCCTTTGTCTAAGCTAGTCATAGCTG | -0.0535 |
| AGCTCCAAAAGGTGGACAAGACTGGTTTTT | 0.686 |
| TTTGAACACCTCTTCTTTCTTCTCTGGTAC | 1.58 |
| GCTTCTGTACCTTTGACTATGGGCATGAAG | 1.52 |
| GTCTAGGTTCTGGGGTGATTACCCTTATCT | 1.13 |
| CCTACCAGTATGCAATGTTAGTCTGGGAAA | 0.479 |

| Sequence | binding signal (log2 normalized intensity) |
| --- | --- |
| CAATAAGCAATACATTGAACTTTGAACACC | 6.91 |
| GTTTGCAGGGACAATGGATGGAACGTGGAC | 1.49 |
| TGACGTCATTGGAAATCCGAAATAAACTGA | -1.06 |
| AAGAGCCAAAATGTGTTAGGCAAGCAAACT | -0.953 |
| CATTGAGTCCACTGAGATCACTTGGGGTAA | 0.868 |
| ATCCACTCAGTATGGCAACCTTTGTCCTGC | 4.84 |
| AACATGTAATTGCATGACCAAGTTGTATCA | 0.881 |
| GAGGAGAGAGTAAATAATTGATGAAACAGG | -0.991 |
| TAACTTCCGGCTGGCCTTCCCTCCTCCCTC | 1.92 |
| TGCCCAACCTTTGCCCCTGGAGGGAGACAT | 3.34 |
| CGTGGAAAGTGGAAGAATGGGAAATTCCAT | -1.11 |
| CATCATCTTGTAATCTGCTTCCAGTTCCAT | 0.0747 |
| TTTTGTTCAATATGCTGAAGTCCAACTGCT | 0.989 |
| GACAACATCTGGTGTGGTTAATGATTATGC | 1.25 |
| CAAGCCAGTTTCCAGGGAGGAGAGAAGGGC | -1.13 |
| GATTAAACTTTAGTCAGATTCCTCTGAGTC | 0.587 |
| ATAACTTCAAGGAGCTCGGCGCCAGGAAGC | -1.07 |
| GGATAATGGAGAAGATAAGCAGATCTTTAG | -1.21 |
| TTTCTTAATTGCCCTTTGCCCTTTGCCCAA | 8.01 |
| CTGTCCCTACTCAATTATCACCACACAGCA | -1.04 |
| TGCAAGGGAGACCAGGAAAGTGAATATCTG | -1.16 |
| CTGGTTCTGCAAGGCAACTGACCTTTGGAT | 8.08 |
| GTGTGACCAAGGACAAACTGAGGAGGACAT | -1.01 |
| AACCCATTTGTTAGTCTCTGGGCCTCCCCA | 1.8 |
| CACCTGGCCAGCGACTTTAGGGGCCAAGGG | 0.23 |

| Sequence | binding signal (log2 normalized intensity) |
| --- | --- |
| TCAAATGCAAAGGCAAACAGATGAAGTACT | -1.15 |
| TCTTCCCATCTAACTGCCCCTGATATCTGA | 2.92 |
| CTGCCGAGGTGTCCTGTAAATAGTGTGTCA | 1.73 |
| AGGTGGAGATAAGGAATTTGTTAAGAACTG | -1.03 |
| CTTCCAGGGAATAAAGAACTCTAAGCAGCG | -1.09 |
| TGAGGTAGTTGAGTGCCTCCATTTCACAAA | -1.03 |
| CCTCAATGTTTACACTTCCATGTTTGTCTT | 2.07 |
| TGAATATGTACATGGACTTTGAACCAAGAT | 8.36 |
| GGAGATGCCGTTAAGCAGATAAGGTGCGGG | -1.14 |
| ATATTCAAACAGGTCAAGCAATGCTGGGGA | 0.151 |
| GGTTGGGGCCTCCCTCCGTGGGGCTCCTTT | -1.07 |
| CAAATTCCTCAATCCAGTCATCTCACACAA | -1.15 |
| GCCATTCCAGAAGTAGGATGGGGAGGGGGC | -0.963 |
| GGCAAAGGGCAAGGCGTCTCTGCCAAGGGG | -1.14 |
| AAGCTTCACTGACATTCCAGCCACTAAGAA | -1.12 |
| GCTGAAAACTATGCATGCTGTGTGTGTGTG | 2.28 |
| CAGATAACAGCGAACATGAGGAATAAACTT | -1.04 |
| CCTAGCAACCTCCACATTGCAACAATGTCC | -0.84 |
| GGCCCATTTTCCCATGGTCTGTAGAAGGCG | 0.306 |
| GCTCTGGTTCAAACAAGGCCAAAGTCTGGC | 1.86 |
